Test results taken from PMC12222028.
These are yes or no findings as the source states them, for the method shown. For part of these data: Binding seen in cells or lysates may run through a third protein. Some entries that bind do so weakly or less than the wild type. For part of these data: Sequences can lack the tags named with a protein. Each block holds one substance with its values, some of them ahead of it.

Protein sequences, listed by entry. Tags and fused reporters are not part of them. Residues count along the entry.
UniProt O43747: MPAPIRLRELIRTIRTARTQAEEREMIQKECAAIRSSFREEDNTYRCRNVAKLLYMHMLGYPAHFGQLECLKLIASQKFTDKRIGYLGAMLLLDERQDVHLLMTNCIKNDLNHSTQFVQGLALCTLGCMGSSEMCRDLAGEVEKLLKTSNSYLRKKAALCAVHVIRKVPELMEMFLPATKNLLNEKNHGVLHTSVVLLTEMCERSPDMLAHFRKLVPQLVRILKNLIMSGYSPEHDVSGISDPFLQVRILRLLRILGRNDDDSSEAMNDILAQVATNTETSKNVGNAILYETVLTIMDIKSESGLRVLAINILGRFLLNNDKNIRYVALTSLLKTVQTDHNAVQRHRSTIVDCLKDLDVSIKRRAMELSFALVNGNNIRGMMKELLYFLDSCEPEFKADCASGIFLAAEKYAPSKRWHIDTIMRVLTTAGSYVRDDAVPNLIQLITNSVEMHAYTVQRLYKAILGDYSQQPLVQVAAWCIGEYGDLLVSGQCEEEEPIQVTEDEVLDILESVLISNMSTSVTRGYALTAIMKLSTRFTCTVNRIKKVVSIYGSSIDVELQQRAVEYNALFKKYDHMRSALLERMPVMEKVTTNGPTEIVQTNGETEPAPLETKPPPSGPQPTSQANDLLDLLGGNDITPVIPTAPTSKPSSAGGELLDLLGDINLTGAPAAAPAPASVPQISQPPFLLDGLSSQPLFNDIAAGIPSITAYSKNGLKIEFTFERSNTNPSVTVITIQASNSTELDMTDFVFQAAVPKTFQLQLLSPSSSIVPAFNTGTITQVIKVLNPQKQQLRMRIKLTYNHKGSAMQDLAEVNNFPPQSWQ
UniProt P51793: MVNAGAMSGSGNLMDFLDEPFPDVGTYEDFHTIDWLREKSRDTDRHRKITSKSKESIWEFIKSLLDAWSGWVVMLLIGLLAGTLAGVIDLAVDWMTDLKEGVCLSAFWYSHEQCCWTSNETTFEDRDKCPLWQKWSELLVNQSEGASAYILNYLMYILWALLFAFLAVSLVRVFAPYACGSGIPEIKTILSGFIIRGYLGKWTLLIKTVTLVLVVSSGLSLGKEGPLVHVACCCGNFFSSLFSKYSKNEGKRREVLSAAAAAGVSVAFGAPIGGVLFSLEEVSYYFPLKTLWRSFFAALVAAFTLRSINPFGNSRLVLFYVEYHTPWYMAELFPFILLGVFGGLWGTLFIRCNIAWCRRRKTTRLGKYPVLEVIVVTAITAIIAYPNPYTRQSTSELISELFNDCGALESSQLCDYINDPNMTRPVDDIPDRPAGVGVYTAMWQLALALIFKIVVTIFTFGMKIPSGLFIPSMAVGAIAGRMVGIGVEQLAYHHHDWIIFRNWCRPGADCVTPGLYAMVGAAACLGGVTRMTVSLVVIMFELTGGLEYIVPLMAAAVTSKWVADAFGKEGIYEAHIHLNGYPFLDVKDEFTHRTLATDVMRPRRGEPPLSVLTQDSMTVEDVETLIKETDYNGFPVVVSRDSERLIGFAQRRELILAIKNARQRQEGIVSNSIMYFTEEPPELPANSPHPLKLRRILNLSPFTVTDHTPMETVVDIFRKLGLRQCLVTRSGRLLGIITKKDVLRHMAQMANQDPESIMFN
UniProt P61966: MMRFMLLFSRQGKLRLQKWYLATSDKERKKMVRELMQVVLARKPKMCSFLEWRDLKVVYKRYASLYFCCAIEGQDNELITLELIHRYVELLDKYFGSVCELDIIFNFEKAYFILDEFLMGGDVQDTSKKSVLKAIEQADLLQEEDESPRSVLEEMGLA
UniProt Q9NVJ2: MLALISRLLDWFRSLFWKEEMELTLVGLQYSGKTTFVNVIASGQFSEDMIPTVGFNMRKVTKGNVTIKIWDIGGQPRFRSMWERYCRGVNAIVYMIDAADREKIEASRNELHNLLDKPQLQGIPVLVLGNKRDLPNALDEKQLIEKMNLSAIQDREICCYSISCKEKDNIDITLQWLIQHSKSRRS
UniProt Q15811: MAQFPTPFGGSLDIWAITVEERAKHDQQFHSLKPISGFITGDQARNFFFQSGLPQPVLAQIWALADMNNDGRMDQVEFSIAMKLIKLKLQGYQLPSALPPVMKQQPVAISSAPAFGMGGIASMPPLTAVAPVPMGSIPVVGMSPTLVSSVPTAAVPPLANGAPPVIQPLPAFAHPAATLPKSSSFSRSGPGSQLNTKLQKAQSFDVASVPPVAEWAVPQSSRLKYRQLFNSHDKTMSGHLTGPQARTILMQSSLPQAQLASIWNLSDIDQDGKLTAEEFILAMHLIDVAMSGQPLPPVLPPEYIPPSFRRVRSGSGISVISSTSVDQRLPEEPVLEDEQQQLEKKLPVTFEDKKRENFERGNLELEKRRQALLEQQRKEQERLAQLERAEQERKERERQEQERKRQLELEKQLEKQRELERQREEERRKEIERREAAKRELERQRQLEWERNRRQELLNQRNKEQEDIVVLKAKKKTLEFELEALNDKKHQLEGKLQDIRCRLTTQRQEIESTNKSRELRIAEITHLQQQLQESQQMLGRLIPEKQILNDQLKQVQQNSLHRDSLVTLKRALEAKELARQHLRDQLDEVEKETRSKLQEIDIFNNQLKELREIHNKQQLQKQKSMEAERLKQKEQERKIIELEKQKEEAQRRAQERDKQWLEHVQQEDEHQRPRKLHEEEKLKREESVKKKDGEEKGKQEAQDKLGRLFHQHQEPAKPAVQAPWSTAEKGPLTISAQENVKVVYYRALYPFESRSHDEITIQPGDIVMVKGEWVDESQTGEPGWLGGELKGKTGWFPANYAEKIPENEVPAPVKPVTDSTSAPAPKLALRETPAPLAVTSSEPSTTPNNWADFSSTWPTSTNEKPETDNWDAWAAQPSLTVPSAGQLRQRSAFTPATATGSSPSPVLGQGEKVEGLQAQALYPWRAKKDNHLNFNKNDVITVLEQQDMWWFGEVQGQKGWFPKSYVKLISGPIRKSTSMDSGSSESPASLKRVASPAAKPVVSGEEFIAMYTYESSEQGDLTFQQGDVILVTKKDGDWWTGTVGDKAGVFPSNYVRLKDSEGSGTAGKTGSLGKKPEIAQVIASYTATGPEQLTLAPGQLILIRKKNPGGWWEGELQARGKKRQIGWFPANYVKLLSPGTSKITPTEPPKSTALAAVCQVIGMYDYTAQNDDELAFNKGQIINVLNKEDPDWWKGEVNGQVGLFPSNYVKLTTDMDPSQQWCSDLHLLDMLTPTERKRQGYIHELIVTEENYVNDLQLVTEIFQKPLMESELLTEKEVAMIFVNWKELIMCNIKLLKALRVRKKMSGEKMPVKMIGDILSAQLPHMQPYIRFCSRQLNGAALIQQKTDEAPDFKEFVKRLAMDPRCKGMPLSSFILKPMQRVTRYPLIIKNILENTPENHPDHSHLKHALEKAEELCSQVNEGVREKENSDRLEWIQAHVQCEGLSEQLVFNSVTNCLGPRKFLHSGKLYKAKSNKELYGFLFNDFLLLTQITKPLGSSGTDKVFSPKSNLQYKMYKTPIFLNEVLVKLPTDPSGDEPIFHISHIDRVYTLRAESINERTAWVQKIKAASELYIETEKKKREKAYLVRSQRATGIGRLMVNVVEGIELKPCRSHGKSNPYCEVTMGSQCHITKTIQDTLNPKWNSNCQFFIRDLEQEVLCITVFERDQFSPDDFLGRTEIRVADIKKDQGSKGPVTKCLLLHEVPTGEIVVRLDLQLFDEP
UniProt P61006: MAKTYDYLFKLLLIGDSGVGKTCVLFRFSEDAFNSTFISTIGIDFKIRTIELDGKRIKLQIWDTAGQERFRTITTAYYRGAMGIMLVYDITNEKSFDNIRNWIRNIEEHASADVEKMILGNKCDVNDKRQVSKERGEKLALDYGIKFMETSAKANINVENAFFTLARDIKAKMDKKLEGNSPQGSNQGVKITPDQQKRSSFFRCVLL
UniProt P62491: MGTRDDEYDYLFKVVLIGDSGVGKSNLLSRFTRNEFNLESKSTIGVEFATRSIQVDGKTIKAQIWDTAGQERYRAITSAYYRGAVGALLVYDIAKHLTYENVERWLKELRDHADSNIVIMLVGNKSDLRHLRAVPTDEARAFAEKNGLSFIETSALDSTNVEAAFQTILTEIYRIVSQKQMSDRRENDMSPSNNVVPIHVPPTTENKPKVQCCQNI
UniProt Q9P0T7, residues 21-183: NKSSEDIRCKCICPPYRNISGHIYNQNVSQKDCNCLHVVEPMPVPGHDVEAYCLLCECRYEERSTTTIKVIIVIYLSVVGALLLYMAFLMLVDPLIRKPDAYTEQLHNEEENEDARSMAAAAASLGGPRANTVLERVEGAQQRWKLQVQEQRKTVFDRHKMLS
UniProt Q96T51: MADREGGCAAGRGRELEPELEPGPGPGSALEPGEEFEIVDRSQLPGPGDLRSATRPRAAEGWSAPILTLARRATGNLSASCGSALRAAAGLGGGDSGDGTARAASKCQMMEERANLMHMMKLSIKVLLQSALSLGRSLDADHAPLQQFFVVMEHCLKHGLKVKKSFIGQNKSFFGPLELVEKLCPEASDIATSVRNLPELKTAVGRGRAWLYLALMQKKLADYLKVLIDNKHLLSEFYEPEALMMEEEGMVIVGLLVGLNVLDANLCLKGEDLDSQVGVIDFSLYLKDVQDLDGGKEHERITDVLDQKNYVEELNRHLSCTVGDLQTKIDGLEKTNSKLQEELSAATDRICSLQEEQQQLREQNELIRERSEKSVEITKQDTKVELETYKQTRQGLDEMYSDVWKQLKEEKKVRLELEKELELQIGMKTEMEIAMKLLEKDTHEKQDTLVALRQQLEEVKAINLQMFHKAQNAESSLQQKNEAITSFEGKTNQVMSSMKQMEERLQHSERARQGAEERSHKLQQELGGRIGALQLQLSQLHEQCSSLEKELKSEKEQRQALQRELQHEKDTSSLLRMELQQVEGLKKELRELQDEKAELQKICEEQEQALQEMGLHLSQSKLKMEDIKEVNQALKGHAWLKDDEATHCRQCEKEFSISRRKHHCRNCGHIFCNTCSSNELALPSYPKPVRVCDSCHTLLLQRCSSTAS

Experiments:
[1] = biological target: AP1G1 (human (endogenous in HEK293)) (UniProt O43747); test: cross-linking; XL-MS: intact early endosomes (Endo-IP, HEK293 cells expressing Flag-EEA1, eluted with 3xFlag peptide, no detergent) cross-linked with 1 mM DSSO in KPBS at room temperature for 40 min; XlinkX, 5% FDR
[2] = biological target: T1, RUFY2 (human (endogenous in HEK293)) (UniProt Q8WXA3); test: as above
T1 sequence: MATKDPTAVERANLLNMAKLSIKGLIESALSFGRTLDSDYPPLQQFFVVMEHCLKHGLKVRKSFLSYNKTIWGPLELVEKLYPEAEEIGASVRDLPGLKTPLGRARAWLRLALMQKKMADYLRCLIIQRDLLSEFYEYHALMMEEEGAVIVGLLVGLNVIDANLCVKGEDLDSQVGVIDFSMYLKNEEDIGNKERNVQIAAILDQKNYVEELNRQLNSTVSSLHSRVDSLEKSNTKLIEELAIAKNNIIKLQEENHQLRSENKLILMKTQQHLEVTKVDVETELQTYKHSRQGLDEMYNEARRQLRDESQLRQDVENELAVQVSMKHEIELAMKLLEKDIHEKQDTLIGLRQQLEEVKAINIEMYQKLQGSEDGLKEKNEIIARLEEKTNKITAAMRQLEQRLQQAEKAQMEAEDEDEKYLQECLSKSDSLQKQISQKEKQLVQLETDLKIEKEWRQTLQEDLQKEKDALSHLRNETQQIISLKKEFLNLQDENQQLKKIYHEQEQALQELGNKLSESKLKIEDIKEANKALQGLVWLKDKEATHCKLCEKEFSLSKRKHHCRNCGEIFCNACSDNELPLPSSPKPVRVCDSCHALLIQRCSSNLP

Flag–CLCN5 (human) = biological target: T2, Flag–CLCN5 (human) (UniProt P51795); test: co-IP; HEK293 cells transfected with tagged proteins; 0.5% DDM, 25 mM HEPES pH 7.4, 150 mM NaCl; anti-HA or anti-Flag magnetic beads; immunoblot
T2 sequence: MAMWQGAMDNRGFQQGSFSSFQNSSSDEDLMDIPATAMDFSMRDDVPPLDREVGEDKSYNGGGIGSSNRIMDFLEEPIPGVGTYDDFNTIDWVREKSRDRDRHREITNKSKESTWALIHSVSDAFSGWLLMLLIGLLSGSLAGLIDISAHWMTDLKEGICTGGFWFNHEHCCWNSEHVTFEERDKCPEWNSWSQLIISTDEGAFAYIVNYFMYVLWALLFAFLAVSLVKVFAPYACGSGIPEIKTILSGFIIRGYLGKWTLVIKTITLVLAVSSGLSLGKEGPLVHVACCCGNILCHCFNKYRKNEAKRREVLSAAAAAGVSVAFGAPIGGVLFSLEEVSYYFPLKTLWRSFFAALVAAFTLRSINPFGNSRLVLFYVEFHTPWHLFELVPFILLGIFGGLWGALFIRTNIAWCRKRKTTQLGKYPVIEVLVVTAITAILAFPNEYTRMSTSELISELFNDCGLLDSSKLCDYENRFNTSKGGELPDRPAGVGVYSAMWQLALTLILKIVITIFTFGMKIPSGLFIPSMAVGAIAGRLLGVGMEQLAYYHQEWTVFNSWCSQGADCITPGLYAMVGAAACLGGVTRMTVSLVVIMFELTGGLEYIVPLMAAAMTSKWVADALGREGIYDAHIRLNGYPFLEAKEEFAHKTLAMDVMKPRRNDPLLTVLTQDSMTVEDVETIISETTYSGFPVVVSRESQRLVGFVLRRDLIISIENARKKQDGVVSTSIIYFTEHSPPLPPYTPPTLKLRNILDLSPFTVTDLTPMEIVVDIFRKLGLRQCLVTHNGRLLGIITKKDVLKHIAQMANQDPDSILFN

[3] = biological target: T3, EPS15L (human (endogenous in HEK293)) (UniProt Q9UBC2); test: cross-linking; XL-MS: intact early endosomes (Endo-IP, HEK293 cells expressing Flag-EEA1, eluted with 3xFlag peptide, no detergent) cross-linked with 1 mM DSSO in KPBS at room temperature for 40 min; XlinkX, 5% FDR
T3 sequence: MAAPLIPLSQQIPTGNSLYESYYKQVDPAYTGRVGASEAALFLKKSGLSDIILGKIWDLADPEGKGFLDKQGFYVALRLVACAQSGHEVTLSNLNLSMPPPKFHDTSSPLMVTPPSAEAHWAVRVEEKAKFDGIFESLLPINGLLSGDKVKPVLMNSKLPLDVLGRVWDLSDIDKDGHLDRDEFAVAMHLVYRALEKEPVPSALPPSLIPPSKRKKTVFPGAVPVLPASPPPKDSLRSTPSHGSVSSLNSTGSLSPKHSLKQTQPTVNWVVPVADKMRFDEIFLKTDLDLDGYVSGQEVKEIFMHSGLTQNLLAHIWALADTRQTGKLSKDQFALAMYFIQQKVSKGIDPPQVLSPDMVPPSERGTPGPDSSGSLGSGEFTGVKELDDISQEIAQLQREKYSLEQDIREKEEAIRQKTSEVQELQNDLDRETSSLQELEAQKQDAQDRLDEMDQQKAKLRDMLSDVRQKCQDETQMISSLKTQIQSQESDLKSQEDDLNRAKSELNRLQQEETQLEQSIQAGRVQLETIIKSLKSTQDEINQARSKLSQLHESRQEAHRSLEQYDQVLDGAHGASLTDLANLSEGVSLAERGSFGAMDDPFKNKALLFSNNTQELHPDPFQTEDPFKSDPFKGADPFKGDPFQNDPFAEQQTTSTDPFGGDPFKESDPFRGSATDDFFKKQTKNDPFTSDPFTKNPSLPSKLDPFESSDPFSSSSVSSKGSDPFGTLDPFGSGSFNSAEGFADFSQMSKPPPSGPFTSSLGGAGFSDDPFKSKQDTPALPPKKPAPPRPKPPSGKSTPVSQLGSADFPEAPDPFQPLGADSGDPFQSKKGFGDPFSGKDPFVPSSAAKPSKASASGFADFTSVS

[4] = biological target: T4, SYTL4 (human (endogenous in HEK293)) (UniProt Q96C24); test: as above
T4 sequence: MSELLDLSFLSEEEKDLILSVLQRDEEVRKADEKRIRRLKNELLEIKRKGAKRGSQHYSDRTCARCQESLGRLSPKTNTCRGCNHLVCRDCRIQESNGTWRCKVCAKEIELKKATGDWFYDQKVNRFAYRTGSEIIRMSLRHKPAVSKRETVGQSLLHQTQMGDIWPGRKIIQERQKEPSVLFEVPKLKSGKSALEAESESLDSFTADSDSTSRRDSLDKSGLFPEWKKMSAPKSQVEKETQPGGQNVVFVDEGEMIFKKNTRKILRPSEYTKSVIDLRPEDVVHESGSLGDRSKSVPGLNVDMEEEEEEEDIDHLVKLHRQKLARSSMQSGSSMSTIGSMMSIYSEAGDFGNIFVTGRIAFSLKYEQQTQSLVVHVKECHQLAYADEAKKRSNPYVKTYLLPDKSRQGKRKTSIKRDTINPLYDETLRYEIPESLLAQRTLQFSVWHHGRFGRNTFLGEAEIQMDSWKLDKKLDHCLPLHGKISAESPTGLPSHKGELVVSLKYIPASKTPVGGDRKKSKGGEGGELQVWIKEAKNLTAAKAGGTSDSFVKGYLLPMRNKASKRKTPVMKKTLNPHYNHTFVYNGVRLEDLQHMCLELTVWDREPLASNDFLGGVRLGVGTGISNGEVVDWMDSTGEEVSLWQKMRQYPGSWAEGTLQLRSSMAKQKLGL

[5] = biological target: T5, SH3BP5 (human (endogenous in HEK293)) (UniProt O60239); test: as above
T5 sequence: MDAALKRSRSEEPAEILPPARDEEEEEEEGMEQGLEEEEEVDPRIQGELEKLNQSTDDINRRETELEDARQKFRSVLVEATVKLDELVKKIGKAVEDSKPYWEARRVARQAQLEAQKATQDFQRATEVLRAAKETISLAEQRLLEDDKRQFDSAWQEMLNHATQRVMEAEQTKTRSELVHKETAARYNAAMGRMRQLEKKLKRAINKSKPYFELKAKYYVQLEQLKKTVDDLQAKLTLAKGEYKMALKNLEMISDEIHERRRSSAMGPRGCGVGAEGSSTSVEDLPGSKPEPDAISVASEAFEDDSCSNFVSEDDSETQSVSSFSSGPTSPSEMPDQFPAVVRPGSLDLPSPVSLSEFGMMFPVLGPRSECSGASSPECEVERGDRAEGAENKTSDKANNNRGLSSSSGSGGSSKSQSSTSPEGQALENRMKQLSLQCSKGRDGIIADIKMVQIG

[6] = biological target: CLCN4 (human (endogenous in HEK293)) (UniProt P51793); test: native gel or EMSA; BN-MS: 0.5% DDM extract of purified early endosomes (HEK293) on a 4-16% NativePAGE gel, 48 slices, DIA mass spectrometry; co-fractionation profiles
[7] = biological target: T6, CLCN5 (human (endogenous in HEK293)) (UniProt P51795); test: as above
T6 sequence: T2 sequence

Substance: AP1S1 (from UniProt P61966 1-158)
binding [1]: binds

Substance: ARL8B (from UniProt Q9NVJ2 1-186)
binding [2]: binds

Substance: ITSN1 (from UniProt Q15811 1-1721)
binding [3]: binds

Substance: RAB8A (from UniProt P61006 1-207)
binding [4]: binds

Substance: RAB11A (from UniProt P62491 1-216)
binding [5]: binds

Continued, values first:

binding (Flag–CLCN5 (human)): binds
Substance: HA-tagged TMEM9 (from UniProt Q9P0T7 21-183)

binding [2]: binds
Substance: RUFY1 (from UniProt Q96T51 1-708)

binding [6]: binds
binding [7]: binds
Substance: TMEM9 (from UniProt Q9P0T7 21-183)
